Test system: P10636
Assay: SDS-PAGE and Western blot of heat-, SDS- and reducing condition-stable multimers; 2 μM tau in aggregation buffer (10 mM sodium Hepes, 0.1 mM EDTA, 200 mM NaCl, 5 mM DTT, pH 7.6) with 75 μM arachidonic acid (aggregated) or ethanol vehicle (unaggregated), 6 h at RT; boiled in Laemmli buffer …
Details: other: SDS-PAGE and Western blot of heat-

O-GlcNAc modified hT39 (Glc hT39, 2N3R tau) (no sequence given)
percent decrease of stable multimers relative to unmodified hT39, aggregated samples: 37% decrease, t = 5.505, p < 0.05 for aggregated samples | percent decrease of stable multimers relative to unmodified hT39, unaggregated samples: 72% decrease, t = 4.250, p < 0.05 for unaggregated samples

— PMC11927755
